Reference: patent publication US9073916B2, “Prodrug forms of kinase inhibitors and their use in therapy” (AUCKLAND UNISERVICES LIMITED, priority 2009, dated 2015)

Test: Chemical stability by HPLC
Conditions: 24 h in α-MEM at 37° C.

With `Cn1cnc([N+](=O)[O-])c1C[N+](C)(C)C/C=C/C(=O)Nc1ccc2ncnc(Nc3cccc(Br)c3)c2c1.[Br-]` [Compound 20, (2E)-4-{[4-(3-bromoanilino)-6-quinazolinyl]amino}-N,N-dimethyl-N-[(1-methyl-4-nitro-1H-imidazol-5-yl)methyl]-4-oxo-2-buten-1-ammonium bromide] the “release of effector 11 by HPLC” value was “No release of effector 11 was observed”.
